Experimental data reported in PubChem BioAssay AID504332 (National Center for Advancing Translational Sciences (NCATS), 2011).
In all, about 350,000 compounds went through this assay and about 31,000 (8.9%) were called active. The shares of active, inactive and inconclusive entries below differ from those in the screen. Calls follow the shape of the dose curve; as a rule, active = well fitted inhibition curve with a large enough effect; inconclusive = small, poorly fitted or top-dose-only effect; inactive = no such curve, though single readings can be large or run the other way. A potency beside an inconclusive call is a rough fit, not a confirmed value.

target: Histone-lysine N-methyltransferase EHMT2 (Homo sapiens) (UniProt Q96KQ7); test: qHTS Assay for Inhibitors of Histone Lysine Methyltransferase G9a; conditions: G9a H3K9 monomethylation, AlphaScreen, 2 h; activity, negative = inhibition: at 59 µM (top of the series) unless noted; also: nearly all actives have a fitted effect of over 75% in size
Outline: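 Methyltransferase reactions run at room temperature for 2 h (20 nM enzyme, 500 nM biotin-H3K9 peptide, 20 uM SAM) after a 15 min compound preincubation; product detected by AlphaScreen beads and anti-H3K9me1 antibody.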
% is scaled to controls: 0 for no effect and ±100 for the full control effect; potency is read from the fitted curve at half-maximal effect; tags tell the direction and shape of the fitted curve.

UniProt Q96KQ7, sequence (Q96KQ7 whole entry, looked up): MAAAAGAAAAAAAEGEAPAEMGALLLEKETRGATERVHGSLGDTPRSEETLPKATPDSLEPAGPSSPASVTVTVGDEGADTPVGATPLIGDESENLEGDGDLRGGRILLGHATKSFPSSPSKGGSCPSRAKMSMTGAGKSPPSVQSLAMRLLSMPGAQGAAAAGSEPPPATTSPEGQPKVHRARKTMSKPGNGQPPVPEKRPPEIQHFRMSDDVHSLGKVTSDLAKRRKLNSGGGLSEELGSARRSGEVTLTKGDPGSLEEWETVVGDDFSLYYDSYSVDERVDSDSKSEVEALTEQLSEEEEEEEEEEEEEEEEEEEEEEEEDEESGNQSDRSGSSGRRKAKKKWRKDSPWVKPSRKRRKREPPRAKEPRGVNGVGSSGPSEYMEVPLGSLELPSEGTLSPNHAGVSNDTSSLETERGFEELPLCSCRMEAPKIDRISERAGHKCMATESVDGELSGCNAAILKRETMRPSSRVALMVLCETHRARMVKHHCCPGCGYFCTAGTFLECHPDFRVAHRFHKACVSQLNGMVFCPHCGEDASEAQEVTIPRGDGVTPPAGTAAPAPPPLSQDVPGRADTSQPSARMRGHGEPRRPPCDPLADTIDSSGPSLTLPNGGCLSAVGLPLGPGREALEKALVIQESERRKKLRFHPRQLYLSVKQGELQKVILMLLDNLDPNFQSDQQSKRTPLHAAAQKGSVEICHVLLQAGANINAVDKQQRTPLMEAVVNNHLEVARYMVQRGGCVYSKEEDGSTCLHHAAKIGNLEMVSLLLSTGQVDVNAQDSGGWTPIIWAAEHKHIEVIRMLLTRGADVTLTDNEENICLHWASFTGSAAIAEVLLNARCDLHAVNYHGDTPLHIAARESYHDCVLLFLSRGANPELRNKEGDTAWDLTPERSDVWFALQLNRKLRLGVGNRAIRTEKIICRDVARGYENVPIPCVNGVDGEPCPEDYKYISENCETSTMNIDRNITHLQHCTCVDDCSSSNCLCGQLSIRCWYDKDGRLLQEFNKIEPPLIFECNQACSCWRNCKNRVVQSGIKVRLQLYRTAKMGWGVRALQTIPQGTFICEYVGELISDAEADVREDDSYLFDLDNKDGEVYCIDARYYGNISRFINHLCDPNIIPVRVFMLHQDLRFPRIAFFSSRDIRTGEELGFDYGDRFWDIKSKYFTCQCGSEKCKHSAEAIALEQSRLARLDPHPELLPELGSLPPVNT

| Compound | Potency | activity, negative = inhibition |
| --- | --- | --- |
| CC(=O)c1ccc(S(=O)(=O)Nc2ccc(-c3ccc4nncn4n3)cc2)cc1 | inconclusive: 79.4 µM [inhibitor, single point] | – |
| CN(Cc1cccc(F)c1)C(=O)CN1CCN(S(=O)(=O)c2ccc3c(c2)OCCCO3)CC1 | – | inactive: -9.2% |
| COc1ccc(CN(C)C(=O)CNC(=O)c2ccc3ccccc3c2)c(OC)c1 | – | inactive: -1.08% [at 102 µM] |
| O=C(NCc1ccc2c(c1)OCO2)c1ccc2c(c1)N(Cc1cccc(Cl)c1)C(=O)c1ccccc1S2=O (stereo unspecified) | – | inactive: 4.36% |
| CCOc1ccc(N(C(=O)c2cnsn2)C(C(=O)NC2CCCCC2)c2ccncc2)cc1 (stereo unspecified) | inconclusive: 15.8 µM [inhibitor, single point] | – |
| COCCNC(=O)/C(C#N)=C/c1ccc(N2CCOCC2)o1 | inconclusive: 89.1 µM [inhibitor, single point] | – |
| Cc1ccc(C)c(S(=O)(=O)N2CCN(c3ncccn3)CC2)c1 | – | inactive: 35.2% [at 102 µM] |
| O=c1[nH][nH]c(=S)n1C1CCCCC1 | active: 1.12 µM | – |
| CCN(CC)CCn1cnc2c1c(=O)n(CCOC(=O)c1cc(OC)c(OC)c(OC)c1)c(=O)n2C | inconclusive: 79.4 µM [inhibitor, single point] | – |
| O=C(CN1CCN(S(=O)(=O)c2ccccc2)CC1)Nc1cccc(C(F)(F)F)c1 | – | inactive: 19.9% |
| Clc1ccc(-c2cn3c(n2)SCC3)cc1 | inconclusive: 70.8 µM [inhibitor, single point] | – |
| Cc1ccc(-c2nc3c(C)cccn3c2Nc2ccccc2C)s1 | active: 14.1 µM | – |
| CC(C)(C)OC(=O)CNC(=O)c1nc[nH]c1C(=O)NCC(=O)OC(C)(C)C | – | inconclusive: -52.6% [inhibitor] [at 12.7 µM] |
| Cc1ccc(NC(=O)C2CCN(C(=O)[C@@H]3Cc4ccccc4CN3)CC2)cc1 | active: 56.2 µM | – |
| N=C1C=CC=C2C1=NC1(CCCCC1)N2O | – | inconclusive: -95% [inhibitor] [at 12.7 µM] |
| Cc1nc2sc(C(c3ccc(Cl)cc3)N3CCN(c4ccccc4F)CC3)c(O)n2n1 (stereo unspecified) | inconclusive: 89.1 µM [inhibitor, single point] | – |
| CCc1ccc2c(c1)C(NC(C)=O)C(=O)N2CC (stereo unspecified) | inconclusive: 22.4 µM [inhibitor, partial curve, poor fit] | – |
| CCOC(=O)COc1nc(-c2ccco2)cc(-c2ccco2)c1C#N | – | inactive: -30.4% |
| CCOC(=O)c1nc2nc(-c3cccs3)cc(C(F)(F)F)n2n1 | inconclusive: 15.8 µM [inhibitor, single point] | – |
| COc1ccc(-n2nnnc2Sc2ccc(S(=O)(=O)N3CCOCC3)cn2)cc1 | active: 1.78 µM | – |
| COc1ccc(-c2csc(-c3nc(-c4ccc(Br)s4)cs3)n2)cc1F | – | inactive: -44.5% |
